# The supplement of paper PMC8728848
# This is one part of the list.
# Assays:
# Test in all cases: glycan array binding signal (z-score within array); higher = stronger binding
# Details in all cases: glycan notation: IUPAC condensed, linker removed
# [1] = biological target: Gal(b1-4)GlcNAc(b1-2)[Gal(b1-4)GlcNAc(b1-6)]Man(a1-6)[Gal(b1-4)GlcNAc(b1-2)Man(a1-3)]Man(b1-4)GlcNAc(b1-4)[Fuc(a1-6)]GlcNAc
# In short: (§1)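 Arrays were curated from the Consortium for Functional Glycomics database, 3228 in total, and kept only where the protein sequence was available. Binding is expressed as a within-array Z-score. This score was averaged across arrays of the same protein sequence at different concentrations or buffers and across linkers, and negative values can be read as non-binding.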
# [2] = biological target: Gal(b1-4)GlcNAc(b1-2)[Gal(b1-4)GlcNAc(b1-6)]Man(a1-6)[GlcNAc(b1-4)][Gal(b1-4)GlcNAc(b1-2)Man(a1-3)]Man(b1-4)GlcNAc(b1-4)GlcNAc
# In short: as §1
# [3] = biological target: Gal(b1-4)GlcNAc(b1-2)[Gal(b1-4)GlcNAc(b1-6)]Man(a1-6)[GlcNAc(b1-4)][Gal(b1-4)GlcNAc(b1-2)[Gal(b1-4)GlcNAc(b1-4)]Man(a1-3)]Man(b1-4)GlcNAc(b1-4)[Fuc(a1-6)]GlcNAc
# In short: as §1
# [4] = biological target: Gal(b1-4)GlcNAc(b1-3)Gal(b1-3)GalNAc
# In short: as §1
# [5] = biological target: Gal(b1-4)GlcNAc(b1-3)Gal(b1-3)GlcNAc
# In short: as §1
# [6] = biological target: Gal(b1-4)GlcNAc(b1-3)Gal(b1-4)Glc
# In short: as §1
# [7] = biological target: Gal(b1-4)GlcNAc(b1-3)Gal(b1-4)GlcNAc
# In short: as §1
# [8] = biological target: Gal(b1-4)GlcNAc(b1-3)Gal(b1-4)GlcNAc(b1-2)Man(a1-3)[Gal(b1-4)GlcNAc(b1-3)Gal(b1-4)GlcNAc(b1-2)Man(a1-6)]Man(b1-4)GlcNAc(b1-4)GlcNAc
# In short: as §1
# [9] = biological target: Gal(b1-4)GlcNAc(b1-3)Gal(b1-4)GlcNAc(b1-2)Man(a1-3)[Gal(b1-4)GlcNAc(b1-3)Gal(b1-4)GlcNAc(b1-2)Man(a1-6)]Man(b1-4)GlcNAc(b1-4)[Fuc(a1-6)]GlcNAc
# In short: as §1
# [10] = biological target: Gal(b1-4)GlcNAc(b1-3)Gal(b1-4)GlcNAc(b1-2)[Gal(b1-4)GlcNAc(b1-3)Gal(b1-4)GlcNAc(b1-6)]Man(a1-6)[Gal(b1-4)GlcNAc(b1-3)Gal(b1-4)GlcNAc(b1-2)Man(a1-3)]Man(b1-4)GlcNAc(b1-4)GlcNAc
# In short: as §1
# [11] = biological target: Gal(b1-4)GlcNAc(b1-3)Gal(b1-4)GlcNAc(b1-2)[Gal(b1-4)GlcNAc(b1-3)Gal(b1-4)GlcNAc(b1-6)]Man(a1-6)[Gal(b1-4)GlcNAc(b1-3)Gal(b1-4)GlcNAc(b1-2)Man(a1-3)]Man(b1-4)GlcNAc(b1-4)[Fuc(a1-6)]GlcNAc
# In short: as §1
# [12] = biological target: Gal(b1-4)GlcNAc(b1-3)Gal(b1-4)GlcNAc(b1-3)Gal(b1-4)GlcNAc
# In short: as §1
# [13] = biological target: Gal(b1-4)GlcNAc(b1-3)Gal(b1-4)GlcNAc(b1-3)Gal(b1-4)GlcNAc(b1-2)Man(a1-3)[Gal(b1-4)GlcNAc(b1-3)Gal(b1-4)GlcNAc(b1-3)Gal(b1-4)GlcNAc(b1-2)Man(a1-6)]Man(b1-4)GlcNAc(b1-4)GlcNAc
# In short: as §1
# [14] = biological target: Gal(b1-4)GlcNAc(b1-3)Gal(b1-4)GlcNAc(b1-3)Gal(b1-4)GlcNAc(b1-2)Man(a1-3)[Gal(b1-4)GlcNAc(b1-3)Gal(b1-4)GlcNAc(b1-3)Gal(b1-4)GlcNAc(b1-2)Man(a1-6)]Man(b1-4)GlcNAc(b1-4)[Fuc(a1-6)]GlcNAc
# In short: as §1
# [15] = biological target: Gal(b1-4)GlcNAc(b1-3)Gal(b1-4)GlcNAc(b1-3)Gal(b1-4)GlcNAc(b1-2)[Gal(b1-4)GlcNAc(b1-3)Gal(b1-4)GlcNAc(b1-3)Gal(b1-4)GlcNAc(b1-6)]Man(a1-6)[Gal(b1-4)GlcNAc(b1-3)Gal(b1-4)GlcNAc(b1-3)Gal(b1-4)GlcNAc(b1-2)Man(a1-3)]Man(b1-4)GlcNAc(b1-4)[Fuc(a1-6)]GlcNAc
# In short: as §1
# [16] = biological target: Gal(b1-4)GlcNAc(b1-3)Gal(b1-4)GlcNAc(b1-3)Gal(b1-4)GlcNAc(b1-3)Gal(b1-4)GlcNAc(b1-2)Man(a1-3)[Gal(b1-4)GlcNAc(b1-3)Gal(b1-4)GlcNAc(b1-3)Gal(b1-4)GlcNAc(b1-3)Gal(b1-4)GlcNAc(b1-2)Man(a1-6)]Man(b1-4)GlcNAc(b1-4)GlcNAc
# In short: as §1
# [17] = biological target: Gal(b1-4)GlcNAc(b1-3)Gal(b1-4)GlcNAc(b1-3)Gal(b1-4)GlcNAc(b1-3)Gal(b1-4)GlcNAc(b1-2)Man(a1-3)[Gal(b1-4)GlcNAc(b1-3)Gal(b1-4)GlcNAc(b1-3)Gal(b1-4)GlcNAc(b1-3)Gal(b1-4)GlcNAc(b1-2)Man(a1-6)]Man(b1-4)GlcNAc(b1-4)[Fuc(a1-6)]GlcNAc
# In short: as §1
# [18] = biological target: Gal(b1-4)GlcNAc(b1-3)Gal(b1-4)GlcNAc(b1-3)Gal(b1-4)GlcNAc(b1-3)Gal(b1-4)GlcNAc(b1-2)[Gal(b1-4)GlcNAc(b1-3)Gal(b1-4)GlcNAc(b1-3)Gal(b1-4)GlcNAc(b1-3)Gal(b1-4)GlcNAc(b1-6)]Man(a1-6)[Gal(b1-4)GlcNAc(b1-3)Gal(b1-4)GlcNAc(b1-3)Gal(b1-4)GlcNAc(b1-3)Gal(b1-4)GlcNAc(b1-2)Man(a1-3)]Man(b1-4)GlcNAc(b1-4)[Fuc(a1-6)]GlcNAc
# In short: as §1
# [19] = biological target: Gal(b1-4)GlcNAc(b1-3)Gal(b1-4)GlcNAc(b1-3)Gal(b1-4)GlcNAc(b1-3)Gal(b1-4)GlcNAc(b1-3)Gal(b1-4)GlcNAc(b1-2)Man(a1-3)[Gal(b1-4)GlcNAc(b1-3)Gal(b1-4)GlcNAc(b1-3)Gal(b1-4)GlcNAc(b1-3)Gal(b1-4)GlcNAc(b1-3)Gal(b1-4)GlcNAc(b1-2)Man(a1-6)]Man(b1-4)GlcNAc(b1-4)GlcNAc
# In short: as §1
# [20] = biological target: Gal(b1-4)GlcNAc(b1-3)Gal(b1-4)GlcNAc(b1-3)Gal(b1-4)GlcNAc(b1-3)Gal(b1-4)GlcNAc(b1-3)Gal(b1-4)GlcNAc(b1-2)Man(a1-3)[Gal(b1-4)GlcNAc(b1-3)Gal(b1-4)GlcNAc(b1-3)Gal(b1-4)GlcNAc(b1-3)Gal(b1-4)GlcNAc(b1-3)Gal(b1-4)GlcNAc(b1-2)Man(a1-6)]Man(b1-4)GlcNAc(b1-4)[Fuc(a1-6)]GlcNAc
# In short: as §1
# [21] = biological target: Gal(b1-4)GlcNAc(b1-3)Gal(b1-4)GlcNAc(b1-3)Gal(b1-4)GlcNAc(b1-3)Gal(b1-4)GlcNAc(b1-3)Gal(b1-4)GlcNAc(b1-2)[Gal(b1-4)GlcNAc(b1-3)Gal(b1-4)GlcNAc(b1-3)Gal(b1-4)GlcNAc(b1-3)Gal(b1-4)GlcNAc(b1-3)Gal(b1-4)GlcNAc(b1-6)]Man(a1-6)[Gal(b1-4)GlcNAc(b1-3)Gal(b1-4)GlcNAc(b1-3)Gal(b1-4)GlcNAc(b1-3)Gal(b1-4)GlcNAc(b1-3)Gal(b1-4)GlcNAc(b1-2)Man(a1-3)]Man(b1-4)GlcNAc(b1-4)[Fuc(a1-6)]GlcNAc
# In short: as §1
# [22] = biological target: Gal(b1-4)GlcNAc(b1-3)Gal(b1-4)GlcNAc(b1-3)Gal(b1-4)GlcNAc(b1-3)Gal(b1-4)GlcNAc(b1-3)Gal(b1-4)GlcNAc(b1-3)Gal(b1-4)GlcNAc(b1-2)Man(a1-3)[Gal(b1-4)GlcNAc(b1-3)Gal(b1-4)GlcNAc(b1-3)Gal(b1-4)GlcNAc(b1-3)Gal(b1-4)GlcNAc(b1-3)Gal(b1-4)GlcNAc(b1-3)Gal(b1-4)GlcNAc(b1-2)Man(a1-6)]Man(b1-4)GlcNAc(b1-4)GlcNAc
# In short: as §1
# [23] = biological target: Gal(b1-4)GlcNAc(b1-3)Gal(b1-4)GlcNAc(b1-3)GalNAc
# In short: as §1
# [24] = biological target: Gal(b1-4)GlcNAc(b1-3)Gal(b1-4)GlcNAc(b1-3)[Gal(b1-4)GlcNAc(b1-3)Gal(b1-4)GlcNAc(b1-6)]GalNAc
# In short: as §1
# [25] = biological target: Gal(b1-4)GlcNAc(b1-3)Gal(b1-4)GlcNAc(b1-6)[Gal(b1-3)]GalNAc
# In short: as §1
# [26] = biological target: Gal(b1-4)GlcNAc(b1-3)Gal(b1-4)[Fuc(a1-3)]GlcNAc(b1-3)Gal(b1-4)[Fuc(a1-3)]GlcNAc
# In short: as §1
# [27] = biological target: Gal(b1-4)GlcNAc(b1-3)GalNAc
# In short: as §1
# [28] = biological target: Gal(b1-4)GlcNAc(b1-3)[Fuc(a1-3)GlcNAc(b1-6)]Gal(b1-4)Glc
# In short: as §1
# [29] = biological target: Gal(b1-4)GlcNAc(b1-3)[Gal(b1-4)GlcNAc(b1-6)]Gal(b1-4)GlcNAc
# In short: as §1
# [30] = biological target: Gal(b1-4)GlcNAc(b1-3)[GlcNAc(b1-6)]Gal(b1-4)GlcNAc
# In short: as §1
# [31] = biological target: Gal(b1-4)GlcNAc(b1-6)Gal(b1-4)GlcNAc
# In short: as §1
# [32] = biological target: Gal(b1-4)GlcNAc(b1-6)GalNAc
# In short: as §1
# [33] = biological target: Gal(b1-4)GlcNAc(b1-6)[Gal(b1-3)]GalNAc
# In short: as §1
# [34] = biological target: Gal(b1-4)GlcNAc(b1-6)[Gal(b1-4)GlcNAc(b1-3)]GalNAc
# In short: as §1
# Gal(b1-4)GlcNAc6P = biological target: Gal(b1-4)GlcNAc6P
# In short: as §1
# Gal(b1-6)Gal = biological target: Gal(b1-6)Gal
# In short: as §1
# Gal3S(b1-3)GalNAc = biological target: Gal3S(b1-3)GalNAc
# In short: as §1
# Gal3S(b1-3)GlcNAc = biological target: Gal3S(b1-3)GlcNAc
# In short: as §1
binder,measurement,setting,value
"Epa9 (Candida glabrata), CAGL0A01386g (protein) MGSSHHHHHHSSGLVPRGSHMDITPFAHYPRPEGCSSPPNAVSVGLHMDLYNYPYLYVKNPRTGFTNDTDSDADGETDGDSAGGIEGRAGQCWNPEYQDPNFPRYGYKKYGSFGSSDHVNGKISWDHNEFKEGCKPIMARLPTAYNYPAKITFSNFTMVLSGYFKPKSTGLYKFEIHADDFILFNFGSKNAFECCNREESIDNFGPYVAYAMWPNEADQELEVYLFEDSYYPIRLFYNNRDYHSKFMVGFYPPNTEEITYDFDGYLYMLDDTGNECKDSIRYKTVCDD",glycan array binding signal (z-score),[1],1.3
same,glycan array binding signal (z-score),[2],0.938
same,glycan array binding signal (z-score),[3],1.7
same,glycan array binding signal (z-score),[4],0.218
same,glycan array binding signal (z-score),[5],0.347
same,glycan array binding signal (z-score),[6],1.14
same,glycan array binding signal (z-score),[7],1.31
same,glycan array binding signal (z-score),[8],1.3
same,glycan array binding signal (z-score),[9],2.76
same,glycan array binding signal (z-score),[10],1.93
same,glycan array binding signal (z-score),[11],2.72
same,glycan array binding signal (z-score),[12],1.79
same,glycan array binding signal (z-score),[13],2.21
same,glycan array binding signal (z-score),[14],3.45
same,glycan array binding signal (z-score),[15],3.44
same,glycan array binding signal (z-score),[16],4.82
same,glycan array binding signal (z-score),[17],4.74
same,glycan array binding signal (z-score),[18],5.31
same,glycan array binding signal (z-score),[19],5.73
same,glycan array binding signal (z-score),[20],5.38
same,glycan array binding signal (z-score),[21],6.29
same,glycan array binding signal (z-score),[22],4.6
same,glycan array binding signal (z-score),[23],0.655
same,glycan array binding signal (z-score),[24],1.18
same,glycan array binding signal (z-score),[25],1.01
same,glycan array binding signal (z-score),[26],1.5
same,glycan array binding signal (z-score),[27],0.451
same,glycan array binding signal (z-score),[28],0.601
same,glycan array binding signal (z-score),[29],2.02
same,glycan array binding signal (z-score),[30],1.41
same,glycan array binding signal (z-score),[31],1.82
same,glycan array binding signal (z-score),[32],0.436
same,glycan array binding signal (z-score),[33],2.27
same,glycan array binding signal (z-score),[34],1.45
same,glycan array binding signal (z-score),Gal(b1-4)GlcNAc6P,-0.435
same,glycan array binding signal (z-score),Gal(b1-6)Gal,-0.089
same,glycan array binding signal (z-score),Gal3S(b1-3)GalNAc,-0.464
same,glycan array binding signal (z-score),Gal3S(b1-3)GlcNAc,-0.521
